Measured values reported in the supplement of paper PMC3334620.
Over roughly 33,000 sequences, “E-score (-0.5 to 0.5)” has its median near -0.056; the highest 2% begin near 0.38. This is one part of the list.

Molecular target: Stb4 (UniProt P50104)
Test: PBM E-score (8-mer binding enrichment) (E-score (-0.5 to 0.5)); higher = stronger / more preferred TF binding; most listed sequences are background and not binding sites
Details: protein concentration: 200 nM; construct: GST-DNA-binding domain
Outline: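 GST-tagged yeast TFs (full-length or DNA-binding domain) were made by PURExpress in vitro transcription/translation and applied at about 100-200 nM to universal all-10-mer Agilent arrays. The arrays were made double-stranded by primer extension, on fresh or once-stripped slides. Bound protein was detected with fluorescent anti-GST, and scans were normalised with masliner. Each ungapped eight-base word, pooled with its reverse complement, received an E-score (modified Wilcoxon-Mann-Whitney statistic) from the Universal PBM Analysis Suite.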

Sequence | PBM E-score
AGTGGCGC | -0.103
GGCAGACC | -0.0364
GAGTCGGC | 0.223
AGGGTGTG | -0.0224
ACCTTCGT | -0.0808
CTCTTTCA | -0.128
CGTCAGAA | -0.193
AAAGCTAT | -0.00392
AATGCACC | 0.143
CATAGAGC | -0.219
CTGGAAGC | -0.244
AATTAACC | 0.231
ATACGACA | -0.222
ATAAGAAT | -0.0747
AAAGGCCA | -0.2
AGCAACGC | -0.168
ACATTACA | -0.153
ACCAGTAA | 0.0512
ACTGACTC | 0.00376
GATCCATA | 0.0378
GAACGCCA | 0.0483
ACCCGGTA | 0.292
TGCTTGAA | -0.0812
CAAGTGAC | -0.0298
CTGAGGTC | -0.243

Sequence | PBM E-score
CTGGGTTA | -0.125
GAGGTTCC | 0.228
CCTCTTGC | -0.0811
CCTCGGGC | 0.288
CGCGAGTA | 0.0512
CCACATTA | -0.194
ACGGAGGA | 0.146
AACGACGG | 0.199
CATTGTGA | -0.092
GGCCTCAC | 0.011
AAACTGTG | -0.12
GATGACAA | 0.047
AGGCGCTC | -0.0622
GCGAACAC | -0.198
TAACTCAA | -0.0973
CCTTGCAG | -0.139
ATCTGCTG | -0.199
ATATGCGA | -0.0377
CCAGGGGC | -0.404
CTCCCCCA | -0.129
CTCACCTC | -0.159
CTGAACCA | -0.197
TGAATCCA | -0.128
AATCGTGC | 0.115
GTCCAAAA | 0.107

Sequence | PBM E-score
CAACGAGC | -0.231
AAAAAGTC | 0.0782
AACGACAT | -0.103
TGCAGACA | -0.191
AAGGCTGC | 0.00401
CTTTCAGA | -0.00262
CTAGTCGA | -0.129
ACCAGACA | -0.132
GACCATGA | -0.115
CTATACCA | -0.226
CGAGTCAG | -0.111
AACTTGAT | -0.147
GGACGTAC | -0.117
AGTAGTAT | 0.0108
ACAGCAGC | -0.185
CACTCCAG | -0.0844
CAGCTGAG | -0.274
CGACGGCG | 0.0996
ACTTACCT | -0.147
CGCCAATA | 0.0151
AATGCCTA | 0.0358
GAAGTAAA | 0.111
AGTGAGAC | -0.0907
TCATGGGA | -0.318
CTAGGCGC | -0.0905

Sequence | PBM E-score
ACAACAGA | -0.302
TACCCGAA | 0.476
CGCACCTA | -0.174
ACATATCG | -0.0909
CGTACTTC | 0.147
ATAGGCAG | -0.255
GAGGTTCA | 0.012
CATTTCTC | -0.0047
TGAGAAAA | -0.269
GCACTGCC | 0.0788
AACCCCCA | -0.178
AAACCGAT | 0.131
CAGCGGCC | -0.0303
GCGGCTCA | 0.13
CGTTATAG | -0.167
ATGTGGTG | 0.0268
TCGTGTCA | -0.185
ACTGATTA | -0.0509
CCCTGCGC | -0.181
AAACTATG | -0.197
ACGTTAAA | -0.0672
CCACGTAG | -0.217
CGTTAAAG | 0.0122
CGTGCTTC | 0.15
GCGCTTCA | -0.0611

Sequence | PBM E-score
AAGACCAA | -0.12
AAGGGGCG | 0.0504
GAGACTGC | 0.0509
AACTTATC | 0.187
ATCACCCC | -0.103
AGCCCAGA | -0.209
CTAAAAAC | -0.105
CCTAGCCG | 0.269
GCGCGTCC | -0.0498
AGGATCCT | -0.218
CTGTACAG | -0.11
CTTTGGGA | -0.158
CGAAGCTA | -0.0183
GCAACAAA | -0.0254
CGCCTCTA | -0.0795
CCGACAGA | 0.297
CCCCACAA | -0.0714
ATGCTTGC | -0.059
ACATTACG | 0.0323
AGAGGCGC | -0.0768
ACGACCAC | -0.177
GGCTAGAA | 0.106
ACGCCCCT | -0.247
AGAGTGAA | -0.0295
CGGCGCCC | 0.0849

Sequence | PBM E-score
ATCGGGGA | 0.243
AGCGGATA | 0.386
CGGCTCTC | 0.205
GAGCTCAA | 0.0672
ACGTTCCT | -0.168
CTAACAAG | -0.27
GGAATACA | 0.181
ACCAAGAG | -0.174
AACGTCGA | -0.157
CAAACGTG | -0.0874
CACAATAG | 0.0246
TAGCATAA | -0.0894
GGCCGGAA | 0.371
CTCGCTTC | 0.0963
ACGGTAGC | -0.104
ACATATGG | -0.226
GGCGCAGA | -0.03
CTACAACC | 0.0951
ATCCCCCA | -0.281
GAACGCCC | -0.0187
ACTGGAAG | -0.283
GCCTAAGC | -0.138
AATTACGT | -0.187
ATGTGATA | -0.266
ACGAGCGC | -0.0806

Sequence | PBM E-score
AATTTGGC | -0.158
AAGACGGG | 0.223
GACCGTAA | -0.0967
AGACGGAC | -0.0259
CAGCTCTC | -0.0779
CAGCAGTA | -0.213
GCATTACC | 0.134
AAATCTTG | -0.0101
TAGGACTA | -0.0548
TCTTTAAA | -0.101
AGGGTTTA | -0.172
ATTGAGGG | -0.176
ATAAGTAT | 0.0367
CCGCTCCC | 0.116
AGACTCAC | -0.301
ATATCTAG | -0.153
CTTCGTTA | -0.159
CAGGTTAG | -0.12
ATTCGCCG | 0.225
CGACACCA | 0.145
CGCGTAAG | -0.0183
GTAGCGAA | -0.0712
